Hit rate of the full screen: of about 150,000 compounds, about 540 (0.36%) showed an effect of 50% or more. This is one part of the list.

Experimental findings from ChEMBL document CHEMBL4888484, “Replenishing the malaria drug discovery pipeline: Screening and hit evaluation of the MMV Hit Generation Library 1 (HGL1) against asexual blood stage Plasmodium falciparum ,using a nano luciferase reporter read-out” (2022) are described below.

The experiment has as its system Plasmodium falciparum. Briefly: Primary screen in NF54 nanoGlo assay, in single point, at 2uM, 72h; a lower Z score goes with more inhibition. The class given is functional, Erythrocyte. The conditions noted are these: timepoint 72 hour.
`C[C@@H](NC(=O)Nc1ccc(F)cn1)c1ccccc1`: the % Inhibition (in general, the relative decrease from the control value, in per cent) is given as -10% and the Z score was determined as 1.08.

For the compound `O=C1CC[C@@]2(CCCN(C(=O)CC3CCCC3)C2)CN1CCc1c[nH]cn1`, the “% Inhibition” value came to 4% and the Z score was -0.48.

`O=C(Nc1nc(-c2ccccc2)cs1)N1CCC[C@@H]1CO`: the “% Inhibition” value is on record as -10% and the Z score is recorded as 1.58.

With `Cc1nc([C@@H]2CCCN2Cc2c(C)nsc2C)[nH]c1C`, the “% Inhibition” value was -10% and the Z score turned out to be 1.19.

On to `O=C(CNCC1CC1)N1CCN(c2ccccc2)CC1`, for which the “% Inhibition” value is on record as -12% and the Z score stood at 1.68.

Consider `CCc1c(C)nc(N)nc1N1CCOCC1`, for which the “% Inhibition” value is reported as -2% and the Z score was 0.26.

`C=CCNC(=O)N1CCC2(CC1)CCS(=O)(=O)CC2`: the “% Inhibition” value is reported as -4% and the Z score amounted to 0.45.

In the case of `CCn1cc(CN(C)[C@@H](C)C(=O)N(C)C)cn1`, the “% Inhibition” value is -17% and the Z score stood at 2.04.

For the compound `CCn1c([C@H](C)Oc2ccccc2F)nnc1N1CCC(OC)CC1`, the “% Inhibition” value is -1% and the Z score is 0.18.

For `CC(C)[C@H](NC(=O)c1ccc(-c2cc(N)ncn2)cc1)c1nccn1C`, the “% Inhibition” value is given as -3% and the Z score is 0.53.

For `CC1CN(C(=O)c2cnc3ccccc3n2)CC(C)O1` (stereo not drawn), the “% Inhibition” value was determined as 0% and the Z score is -0.02.

With `Cc1ccnc(Oc2cccc(C(=O)N3CCCC3)c2)n1`, the “% Inhibition” value is -4% and the Z score turned out to be 0.55.

`CCC(Oc1ccc2c(c1)C(c1ccc(C)cc1)N(C(=O)CC(C)C)CC2)C(=O)N(C)Cc1ccco1` (stereo not drawn): the “% Inhibition” value is given as -17% and the Z score was determined as 2.62.

With `Cc1cc(Br)ccc1CN[C@@H](C)CC(=O)N(C)C`, the “% Inhibition” value was 1% and the Z score is reported as -0.17.

In the case of `CC(C)(C)n1ncnc1CC[C@@H]1NC(=O)NC1=O`, the “% Inhibition” value is -8% and the Z score stood at 1.02.

`Cn1c(-c2ccncc2)nc2cc(C(=O)NCCc3cccs3)cc(NC(=O)C3CCC3)c21`: the “% Inhibition” value is given as -7% and the Z score was 0.78.

On to `Nc1ccnc2c(-c3ccncc3)cccc12`, for which the “% Inhibition” value is reported as -2% and the Z score worked out at 0.26.

Take `CCCN1CCC[C@H](Nc2ncc(CC)cn2)C1`: the “% Inhibition” value is recorded as -3% and the Z score was 0.48.

As for `COc1ccsc1S(=O)(=O)N(C)c1cnccn1`, the “% Inhibition” value is recorded as -3% and the Z score stood at 0.35.

Turning to `Cc1ccc(NC(=O)N2Cc3cncnc3C2)cc1C`, the “% Inhibition” value was -13% and the Z score is listed as 2.26.

On to `CC(C)n1ccc(CN2CCCN(CC(=O)N3CCCC3)CC2)n1`, for which the “% Inhibition” value was -1% and the Z score was 0.19.

As to `O=C1N(c2cccc(F)c2)Cc2nn(Cc3cccc(Cl)c3)c(=O)n21`, the “% Inhibition” value is on record as -5% and the Z score was 0.7.

Regarding `COc1cc(COCC2CCN(S(=O)(=O)N(C)C)CC2)cc(OC)c1`, the “% Inhibition” value was found to be 5% and the Z score was -0.67.

As for `CC(=O)NC(C)(C)Cc1cccc(Br)c1`, the “% Inhibition” value is -21% and the Z score was 2.86.

`O=C(Nc1ccncc1)N[C@H]1CCN(C2CC2)C1`: the “% Inhibition” value was -3% and the Z score is given as 0.42.

Take `Cc1cccc(CNC[C@H]2CC[C@H](C(N)=O)CC2)c1C`: the “% Inhibition” value turned out to be 14% and the Z score was -1.81.

Regarding `Cc1cc(S(=O)(=O)N[C@H]2CCc3cc(F)ccc32)cnc1N`, the “% Inhibition” value was determined as 7% and the Z score is reported as -0.81.

For `Cc1cnc(N2CCN(CC3CCC3)CC2)nc1`, the “% Inhibition” value is -8% and the Z score is 1.

On to `COc1cccc(C(=O)N2CC3(CCCO3)C2C2CC2)c1` (stereo not drawn), for which the “% Inhibition” value is on record as -3% and the Z score is 0.38.

Turning to `CNC(=O)C[C@H]1CCN(C(=O)COC(C)C)C1`, the “% Inhibition” value came out at 2% and the Z score is -0.31.

For `COC(=O)c1cc(C2CC2)nc2c1c(=O)n(CC(=O)NC1CCCCC1)c(=O)n2C`, the “% Inhibition” value is given as -6% and the Z score was determined as 0.81.

In the case of `Cc1cccc2c(N3CCCN(S(C)(=O)=O)CC3)c(C#N)cnc12`, the “% Inhibition” value was -1% and the Z score is recorded as 0.08.

As to `C=CCN(C)C(=O)NCCC(=O)Nc1ccc(Br)cc1`, the “% Inhibition” value was -7% and the Z score came to 1.17.

With `C/C=C/CC(=O)NCc1nc(-c2cccc(F)c2)c(-c2ccccn2)[nH]1`, the “% Inhibition” value is -10% and the Z score is 1.17.

As for `CCC(C)N1C(=O)CCC1c1c(C)n(C)c2ccccc12` (stereo not drawn), the “% Inhibition” value was -8% and the Z score is on record as 0.89.

As for `Cc1ccc(-c2ccc(=O)n(CCNC(=O)Nc3cccc(C)c3)n2)cc1`, the “% Inhibition” value came out at 8% and the Z score is -1.24.

As to `O=C1CCc2cc(S(=O)(=O)N3CCCCCC3)cc3c2N1CCC3`, the “% Inhibition” value is -13% and the Z score is listed as 1.71.

As to `O=C(C1c2ccccc2Oc2ccccc21)N1CC(Nc2cnccn2)C1`, the “% Inhibition” value was -7% and the Z score was 0.83.

Consider `CCNC(=O)C1CCCN(c2nc(OC)nc(N3CCCC(C(=O)NCC)C3)n2)C1` (stereo not drawn), for which the “% Inhibition” value was 4% and the Z score is -0.5.

As to `Cc1ccc(NC(=O)[C@@H]2CC=CCC2)c(-c2nc[nH]n2)c1`, the “% Inhibition” value came to 0% and the Z score is 0.05.

`COc1ccc(-c2c(OC)nsc2CO)cn1`: the “% Inhibition” value is -5% and the Z score is recorded as 0.59.

Regarding `O=C(COc1ccccc1)NCC#Cc1ccc(C(F)(F)F)cc1`, the “% Inhibition” value is given as -10% and the Z score stood at 1.74.

Consider `CCC1(CC)NC(=O)N(Cc2c(C)noc2C)C1=O`, for which the “% Inhibition” value is given as 0% and the Z score is given as -0.03.

In the case of `CC(C)Oc1cccc(-c2nc(=O)c(CCC(=O)N3CCN(C(C)C)CC3)n[nH]2)c1`, the “% Inhibition” value is recorded as 3% and the Z score is reported as -0.45.
